# Article PMC4336329 (PLoS ONE, 2015)
# Among all 310,000 compounds or so, about 14,000 (4.5%) showed an effect of 50% or more. The effect is printed as a negative number. This is one part of the list.
# Target: human ether-à-go-go-related gene (hERG) potassium channel (human, UniProt Q12809)
# Assay: primary screen, population patch clamp on CHO cells stably expressing hERG
# 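Also: peak tail current of the secondary pulse compared with the same well before compound.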
# Sequence of human ether-à-go-go-related gene (hERG) potassium channel (Q12809 whole entry, looked up): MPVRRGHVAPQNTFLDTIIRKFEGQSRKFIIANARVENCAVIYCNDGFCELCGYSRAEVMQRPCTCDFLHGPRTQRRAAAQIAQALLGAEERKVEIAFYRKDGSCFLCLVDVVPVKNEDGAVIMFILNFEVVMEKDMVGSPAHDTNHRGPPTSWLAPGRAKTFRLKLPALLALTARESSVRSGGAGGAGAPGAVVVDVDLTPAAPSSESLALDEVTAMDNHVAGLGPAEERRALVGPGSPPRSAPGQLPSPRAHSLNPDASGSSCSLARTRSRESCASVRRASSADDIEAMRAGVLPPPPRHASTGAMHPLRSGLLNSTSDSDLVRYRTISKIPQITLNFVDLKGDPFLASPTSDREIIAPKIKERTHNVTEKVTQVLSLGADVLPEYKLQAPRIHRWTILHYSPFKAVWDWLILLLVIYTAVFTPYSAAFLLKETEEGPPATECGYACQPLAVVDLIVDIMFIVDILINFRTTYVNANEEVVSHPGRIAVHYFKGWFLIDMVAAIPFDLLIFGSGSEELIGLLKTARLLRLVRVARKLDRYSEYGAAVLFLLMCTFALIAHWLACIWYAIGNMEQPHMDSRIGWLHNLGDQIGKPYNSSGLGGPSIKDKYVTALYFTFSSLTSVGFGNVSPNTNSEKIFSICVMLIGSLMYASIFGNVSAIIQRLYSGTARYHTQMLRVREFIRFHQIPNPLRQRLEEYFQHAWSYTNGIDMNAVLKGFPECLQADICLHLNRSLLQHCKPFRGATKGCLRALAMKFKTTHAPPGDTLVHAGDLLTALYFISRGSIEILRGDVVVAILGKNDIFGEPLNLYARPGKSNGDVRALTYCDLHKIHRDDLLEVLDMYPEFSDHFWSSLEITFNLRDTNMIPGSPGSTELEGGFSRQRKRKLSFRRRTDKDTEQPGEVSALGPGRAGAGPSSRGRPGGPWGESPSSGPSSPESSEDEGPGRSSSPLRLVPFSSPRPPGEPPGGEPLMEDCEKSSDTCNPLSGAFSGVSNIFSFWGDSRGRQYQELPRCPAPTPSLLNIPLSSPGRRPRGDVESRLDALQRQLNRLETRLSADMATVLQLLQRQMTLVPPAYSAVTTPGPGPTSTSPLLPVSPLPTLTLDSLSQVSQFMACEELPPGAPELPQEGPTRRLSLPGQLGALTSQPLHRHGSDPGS
row,SMILES,"hERG current change (%, negative = inhibition) at 10uM [%]"
1,COc1ccc(Cl)cc1C1=CC(=O)C[C@H](c2ccc(F)cc2)C1,-2.68
2,Cc1ccc(C2CC(c3cccs3)=NN2C(=O)CCl)cc1 (centres unmarked),-5.87
3,CCOc1ccc(OCC(=O)c2c(O)c3ccccc3oc2=O)cc1,-3.16
4,COc1ccc(C)cc1S(=O)(=O)N(CC(=O)NC1CCCC1)c1ccc(F)cc1,-21.5
5,Cn1ccs/c1=N\S(=O)(=O)c1ccc(Br)cc1,11.9
6,O=C(N/N=C/c1ccc2c(c1)OCO2)c1cccc(NC(=O)c2ccccc2Cl)c1,4.03
7,CCc1ccc(NC(=O)CSc2nnc(Cc3cccn3C)n2-c2ccc(F)cc2)cc1,-34.3
8,O=C(Nc1ccccc1[N+](=O)[O-])C1=C(O)CCn2c1nc1ccccc12,27.6
9,CCOC(=O)C1CCN(C(=O)CNC(=O)c2nn(-c3ccc(OC)cc3OC)c(=O)c3ccccc23)CC1,22.8
10,COc1ccc(OC)c(NC(=O)CN(C)CCOc2ccc(Br)cc2)c1,-4.57
11,Cc1c(NC(=O)CN2C(=O)NC3(CCCC3)C2=O)c(=O)n(-c2ccccc2)n1C,17.1
12,O=C(COC(=O)/C=C/c1ccco1)NCc1ccc(Cl)cc1,-5.39
13,O=C(CSc1nnc(Nc2ccccc2F)s1)c1cc2ccccc2o1,11
14,COc1ccc(Cl)cc1N(C)C(=O)CCc1nc(-c2ccc(C)cc2)no1,-10.9
15,Cc1c(Cl)cccc1NC(=S)NCCc1ccc(C(F)(F)F)cc1,10.3
16,COc1ccc(Oc2nc(C)cc(C)c2S(=O)(=O)c2ccc(C)cc2)cc1,-12.2
17,N#Cc1c(NC(=S)NC(=O)C2CCCC2)sc2c1CCCCC2,12.7
18,CSc1nnc(C)c(=O)n1COC(=O)COc1ccccc1F,14.9
19,O=C(COc1cccc2cccnc12)Nc1cccc(S(=O)(=O)N2CCCC2)c1,-36.4
20,CC/C(=N\NC(=O)CSCc1ccccc1Cl)c1ccc2c(c1)OCCO2,13
21,C/C(CCc1ccccc1)=N\NC(=O)c1ccccc1[N+](=O)[O-],21.2
22,COCCN(C(=O)COC(=O)Cc1coc2cc(C)ccc12)c1c(N)n(Cc2ccccc2)c(=O)[nH]c1=O,-13.3

row,SMILES,"hERG current change (%, negative = inhibition) at 10uM [%]"
1,COc1ccc(S(=O)(=O)N2CCCC(C(=O)NCc3ccccn3)C2)cc1Cl (centres unmarked),-15.1
2,CC(C)n1nnnc1SCC(=O)NCc1ccc2c(c1)OCO2,4.63
3,CN1C(C(=O)NCc2cccc(Br)c2)CC2Cn3c(nc4cc5ccccc5cc43)C21 (centres unmarked),-62
4,Cc1ccc(CNC(=O)c2cc3c(=O)n(C)c4ccccc4c3n2C)o1,-7.44
5,CN(Cc1cccc(Cl)c1Cl)C(=O)c1cccc(S(=O)(=O)N2CCN(Cc3ccccc3)CC2)c1,5.42
6,Cc1ccc(S(=O)(=O)N2CCCCC2)c2nsnc12,-54.9
7,O=C(CN1CCN(C(=O)CNC(=O)c2ccc3c(c2)OCO3)CC1)Nc1cccc(F)c1,-20.7
8,Cc1ccc(-c2nc3ncccc3o2)cc1NC(=O)C(C)C,14.9
9,CCOc1ccc(OCC)c(S(=O)(=O)n2cc(C)nc2CC)c1,65.8
10,CC(=O)NC(Cc1ccccc1)C(C)=O (centres unmarked),3.21
11,COCCCNC(=O)/C=C/c1ccc(Cl)cc1Cl,-12.2
12,COc1ccc(/C=N/NC(=O)c2ccc(CN3C(=O)c4cccc5cccc3c45)cc2)cc1O,4.73
13,O=C(Nc1cccc(S(=O)(=O)Nc2ccccc2F)c1)c1ccc2ccccc2n1,2.06
14,CCN1/C(=c2/s/c(=C3/C(=O)N(c4ccccc4)N=C3C)n(CC)c2=O)C=Cc2ccccc21,-8.31
15,CCCc1nn(C)c2c1C(c1cccnc1)C(C#N)=C(N)O2 (centres unmarked),11.8
16,COc1ccc(OC)c(NC(=O)c2ccc3c(c2)CCN3S(C)(=O)=O)c1,4.31
17,COc1ccccc1NS(=O)(=O)c1cccc(C(=O)N/N=C(\C)c2ccc3c(c2)OCCO3)c1,-7.15
18,O=C(COC(=O)CCC(=O)c1ccccc1)NNC(=O)c1ccc(Cl)cc1,-2.27
19,CCCC(=O)Nc1nc(C)c(C(C)=O)s1,-0.293
20,Cc1ccn(C(=O)c2cc3c(C)nn(-c4ccccc4)c3s2)n1,14.5
21,S=c1nccc(-c2cc(Cl)sc2Cl)[nH]1,-4.38
22,CCOC(=O)c1cc2c(=O)[nH]c(C(Cl)(Cl)Cl)nc2o1,9.59

row,SMILES,"hERG current change (%, negative = inhibition) at 10uM [%]"
1,COc1ccc(NC(=O)CCSc2nc(C)cs2)cc1,11.6
2,O=C(O)C1CC(c2ccccc2)=Nc2ccccc2S1 (centres unmarked),1.43
3,COc1ccc(-c2nnc(SCC(=O)Nc3ccc4c(c3)OCCO4)n2N)cc1OC,4.82
4,CC(C)c1ccc(-c2nc(N3CCCCC3)[nH]c(=O)c2C#N)cc1,4.05
5,O=C(COc1ccc(Br)cc1Cl)NC(=S)Nc1ccccn1,22.8
6,CCC(=O)Nc1c(-c2ccc(C)cc2)c(=O)c2ccccc2n1C,4.53
7,Cc1ccc(NC(=O)CSCC(=O)N(C)CC(=O)Nc2cccc(F)c2)cc1,-44.6
8,O=C(CCl)N1N=C(c2cccs2)CC1c1ccco1 (centres unmarked),-2.08
9,CCOc1ccc(-c2[nH]ncc2-c2ccc(OC)c(OC)c2)c(O)c1,-2.9
10,CC(NC(=O)CCNC(=O)c1ccco1)c1ccc(F)cc1 (centres unmarked),12.3
11,O=C1CCC(C(=O)N2CCc3ccccc3C2)CN1CCCN1CCOCC1 (centres unmarked),7.89
12,COc1cccc(/C=N/n2c(-c3cccs3)n[nH]c2=S)c1,10.6
13,C/C(=N\N1CCCCC1c1cccnc1)c1c(O)n(C2CCCCC2)c(=S)[nH]c1=O (centres unmarked),0.0734
14,C/C(=N\Nc1c([N+](=O)[O-])c(C)nn1C)c1ccc(F)cc1F,2.54
15,O=C(COc1ccc(Cl)cc1)Nc1nnc(-c2ccc3c(c2)CCCC3)o1,17.1
16,O=C(NC1CCN(C(=O)NCc2ccccc2)CC1)c1cccc(F)c1,0.922
17,COc1ccc(Cc2noc(CN3CCNC(=O)CC3)n2)cc1OC,6.36
18,O=[N+]([O-])c1cccc(-c2ccc(/C=N/Nc3nc(N4CCCCC4)nc(N4CCCCC4)n3)o2)c1,8.33
19,O=C(NCc1ccc(Cl)cc1)C1CCC(=O)N(C2CCCCCC2)C1 (centres unmarked),-17
20,CCCn1nnc(NC(=O)/C=C/c2cc(Br)ccc2OC)n1,6.21
21,O=C1c2ccccc2C(=O)N1CN(C(=O)COc1ccccc1)c1ccccc1,4.99
22,Cc1cnc(CNC(=O)C2CCC(=O)N(Cc3ccc(Cl)cc3)C2)[nH]1 (centres unmarked),18.9

row,SMILES,"hERG current change (%, negative = inhibition) at 10uM [%]"
1,O=S(=O)(c1ccc(Br)cc1)c1nc(-c2ccccc2)oc1NCCN1CCOCC1,8.43
2,c1ccc(Cn2c(SCc3nc4ccccc4s3)nnc2-c2ccco2)cc1,-34.1
3,COc1ccc(C)cc1S(=O)(=O)Nc1ccc2c(c1)OCCO2,17.6
4,Cc1ccc(C2(c3noc(CN(C)CCCN4CCOCC4)n3)CCCC2)cc1,-33.9
5,COC(=O)/C=c1/sc2nc3ccccc3n2c1=O,3.38
6,Cc1cccc(N/N=C/c2ccc(C)s2)c1,19.7
7,O=C(COC(=O)[C@@H]1CCCN1S(=O)(=O)c1ccc(Cl)cc1)NCC(F)(F)F,11.7
8,Cc1ccc(NC(=O)COc2ccccc2C(=O)NCc2ccccc2)cc1,-31.1
9,COc1ccc(-c2ccc(N)cn2)cn1,12.5
10,COC(=O)c1ccc(-n2c(C)cc(C(=O)COC(=O)CC3Sc4ccccc4NC3=O)c2C)cc1 (centres unmarked),28.5
11,CCCC(c1nnnn1Cc1cccs1)N1CCN(C2CCCC2)CC1.Cl (centres unmarked),-29
12,CCN1C(=O)C2(C(C(=O)c3cc4ccccc4o3)=C(O)C(=O)N2CCCN2CCOCC2)c2ccccc21 (centres unmarked),15.3
13,COc1cc(C2C(C#N)=C(N)Oc3cc(C)oc(=O)c32)ccc1OC(=O)N1CCOCC1 (centres unmarked),-4.07
14,O=C(O)c1ccc(/C=C2\SC(=S)N(NC(=O)c3ccc(Br)cc3)C2=O)cc1,9.25
15,CS(=O)(=O)NN1C(=O)c2ccccc2NC1c1ccccc1 (centres unmarked),12.8
16,O=P(c1ccccc1)(c1ccccc1)C(c1ccco1)N1CCOCC1 (centres unmarked),9.93
17,Cc1ccc(CS(=O)(=O)c2ccc(C(=O)N3CCN(c4ccccn4)CC3)cc2[N+](=O)[O-])cc1,-43.9
18,CC1CC(C)CN(C(=O)c2ccc(Br)c(S(=O)(=O)N3CCOCC3)c2)C1 (centres unmarked),-26.6
19,COc1cccc(CN(C)CC2CCCN(CCc3ccc(Cl)cc3)C2)c1OC (centres unmarked),-74.5
20,CCCc1nn(C)c(C(=O)Nc2cccc(C)c2)c1Cl,15.5
